# Publication PMC9911399, “Two distinct binding modes provide the RNA-binding protein RbFox with extraordinary sequence specificity”
# Changes are numbered by the printed parent chain; changes in the protein carry UniProt numbers. The list shows a part of the results.
# T1: RBFOX1 RRM RbFoxmut (Fox-RRM*) (Homo sapiens, UniProt Q9NWB1 109-208, R118D;E147R;N151S;E152T)
# T1 sequence: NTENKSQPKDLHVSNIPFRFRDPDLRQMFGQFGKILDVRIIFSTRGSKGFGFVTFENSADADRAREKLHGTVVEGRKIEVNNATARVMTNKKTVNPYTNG
# B1: GGGCGAU (DNA:RNA)
# RNA: GGGAGACCGGAAUUCAGAUUGUCCGGGCGAUUUAAAUCCCGUCGUAGCCACCA
# DNA 1: CAATCTGAATTCCGGTCTCCC
# DNA 2: TGGTGGCTACGACGGGATT
# B2: CACGGUA (DNA:RNA)
# RNA: B1 RNA with G25C, G26A, G27C, C28G, A30U, U31A
# DNA 1: CAATCTGAATTCCGGTCTCCC
# DNA 2: TGGTGGCTACGACGGGATT
# B3: AUUCAAA (DNA:RNA)
# RNA: B1 RNA with G25A, G26U, G27U, G29A, U31A
# DNA 1: CAATCTGAATTCCGGTCTCCC
# DNA 2: TGGTGGCTACGACGGGATT
# B4: AACUAAA (DNA:RNA)
# RNA: B1 RNA with G25A, G26A, G27C, C28U, G29A, U31A
# DNA 1: CAATCTGAATTCCGGTCTCCC
# DNA 2: TGGTGGCTACGACGGGATT
# B5: UCUAGGU (DNA:RNA)
# RNA: B1 RNA with G25U, G26C, G27U, C28A, A30G
# DNA 1: CAATCTGAATTCCGGTCTCCC
# DNA 2: TGGTGGCTACGACGGGATT
# B6: ACUUCGG (DNA:RNA)
# RNA: GGGAGACCGGAAUUCAGAUUGUCCACUUCGGUUAAAUCCCGUCGUAGCCACCA
# DNA 1: CAATCTGAATTCCGGTCTCCC
# DNA 2: TGGTGGCTACGACGGGATT
# B7: UGUUAGG (DNA:RNA)
# RNA: B6 RNA with A25U, C26G, C29A
# DNA 1: CAATCTGAATTCCGGTCTCCC
# DNA 2: TGGTGGCTACGACGGGATT
# B8: ACCGGCU (DNA:RNA)
# RNA: B6 RNA with U27C, U28G, C29G, G30C, G31U
# DNA 1: CAATCTGAATTCCGGTCTCCC
# DNA 2: TGGTGGCTACGACGGGATT
# B9: AACAUGG (DNA:RNA)
# RNA: B6 RNA with C26A, U27C, U28A, C29U
# DNA 1: CAATCTGAATTCCGGTCTCCC
# DNA 2: TGGTGGCTACGACGGGATT
# B10: CGGCCAC (DNA:RNA)
# RNA: B1 RNA with G25C, G29C, U31C
# DNA 1: CAATCTGAATTCCGGTCTCCC
# DNA 2: TGGTGGCTACGACGGGATT
# B11: CAACAUG (DNA:RNA)
# RNA: B6 RNA with A25C, C26A, U27A, U28C, C29A, G30U
# DNA 1: CAATCTGAATTCCGGTCTCCC
# DNA 2: TGGTGGCTACGACGGGATT
# B12: GUCUGCA (DNA:RNA)
# RNA: B1 RNA with G26U, G27C, C28U, A30C, U31A
# DNA 1: CAATCTGAATTCCGGTCTCCC
# DNA 2: TGGTGGCTACGACGGGATT
# B13: GUUGACC (DNA:RNA)
# RNA: B6 RNA with A25G, C26U, U28G, C29A, G30C, G31C
# DNA 1: CAATCTGAATTCCGGTCTCCC
# DNA 2: TGGTGGCTACGACGGGATT
# B14: CUUGUAG (DNA:RNA)
# RNA: B6 RNA with A25C, C26U, U28G, C29U, G30A
# DNA 1: CAATCTGAATTCCGGTCTCCC
# DNA 2: TGGTGGCTACGACGGGATT
# B15: CCUACGA (DNA:RNA)
# RNA: B6 RNA with A25C, U28A, G31A
# DNA 1: CAATCTGAATTCCGGTCTCCC
# DNA 2: TGGTGGCTACGACGGGATT
# B16: GGUCGCG (DNA:RNA)
# RNA: B1 RNA with G27U, A30C, U31G
# DNA 1: CAATCTGAATTCCGGTCTCCC
# DNA 2: TGGTGGCTACGACGGGATT
# B17: GAGCGGC (DNA:RNA)
# RNA: B1 RNA with G26A, A30G, U31C
# DNA 1: CAATCTGAATTCCGGTCTCCC
# DNA 2: TGGTGGCTACGACGGGATT
# B18: CGCUUAC (DNA:RNA)
# RNA: B1 RNA with G25C, G27C, C28U, G29U, U31C
# DNA 1: CAATCTGAATTCCGGTCTCCC
# DNA 2: TGGTGGCTACGACGGGATT
# B19: AUCAUCU (DNA:RNA)
# RNA: B6 RNA with C26U, U27C, U28A, C29U, G30C, G31U
# DNA 1: CAATCTGAATTCCGGTCTCCC
# DNA 2: TGGTGGCTACGACGGGATT
# B20: UAUUACA (DNA:RNA)
# RNA: B6 RNA with A25U, C26A, C29A, G30C, G31A
# DNA 1: CAATCTGAATTCCGGTCTCCC
# DNA 2: TGGTGGCTACGACGGGATT
# B21: GCUGGUU (DNA:RNA)
# RNA: B1 RNA with G26C, G27U, C28G, A30U
# DNA 1: CAATCTGAATTCCGGTCTCCC
# DNA 2: TGGTGGCTACGACGGGATT
# B22: GUUCAGC (DNA:RNA)
# RNA: B6 RNA with A25G, C26U, U28C, C29A, G31C
# DNA 1: CAATCTGAATTCCGGTCTCCC
# DNA 2: TGGTGGCTACGACGGGATT
# B23: UCGUAUG (DNA:RNA)
# RNA: B6 RNA with A25U, U27G, C29A, G30U
# DNA 1: CAATCTGAATTCCGGTCTCCC
# DNA 2: TGGTGGCTACGACGGGATT
# B24: CUAGUUG (DNA:RNA)
# RNA: B6 RNA with A25C, C26U, U27A, U28G, C29U, G30U
# DNA 1: CAATCTGAATTCCGGTCTCCC
# DNA 2: TGGTGGCTACGACGGGATT
# B25: GAAAGUC (DNA:RNA)
# RNA: B1 RNA with G26A, G27A, C28A, A30U, U31C
# DNA 1: CAATCTGAATTCCGGTCTCCC
# DNA 2: TGGTGGCTACGACGGGATT
# B26: CUGCGGC (DNA:RNA)
# RNA: B1 RNA with G25C, G26U, A30G, U31C
# DNA 1: CAATCTGAATTCCGGTCTCCC
# DNA 2: TGGTGGCTACGACGGGATT
# B27: ACUAGUU (DNA:RNA)
# RNA: B6 RNA with U28A, C29G, G30U, G31U
# DNA 1: CAATCTGAATTCCGGTCTCCC
# DNA 2: TGGTGGCTACGACGGGATT
# B28: CCGCCGU (DNA:RNA)
# RNA: B6 RNA with A25C, U27G, U28C, G31U
# DNA 1: CAATCTGAATTCCGGTCTCCC
# DNA 2: TGGTGGCTACGACGGGATT
# B29: UUACAGU (DNA:RNA)
# RNA: B1 RNA with G25U, G26U, G27A, G29A, A30G
# DNA 1: CAATCTGAATTCCGGTCTCCC
# DNA 2: TGGTGGCTACGACGGGATT
# B30: AGCGCAG (DNA:RNA)
# RNA: B6 RNA with C26G, U27C, U28G, G30A
# DNA 1: CAATCTGAATTCCGGTCTCCC
# DNA 2: TGGTGGCTACGACGGGATT
# B31: CGCGGAC (DNA:RNA)
# RNA: B1 RNA with G25C, G27C, C28G, U31C
# DNA 1: CAATCTGAATTCCGGTCTCCC
# DNA 2: TGGTGGCTACGACGGGATT
# Target: T1, RBFOX1 RRM RbFoxmut (Fox-RRM*)
# Assay: EMSA; HiTS-Eq, 1 nM pool, 10 min; buffer printed only for the single-RNA assays: 10 mM Tris pH 7.5, 150 mM NaCl, 3.4 mM EDTA, 0.001% NP-40, 30 C
# Conditions: tags: His6 N-terminal (pET28a); label: 5' 32P
# How it was run: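 Purified wild-type or mutant RbFox RRM at increasing concentrations was equilibrated with 1 nM of 5′-radiolabelled RNA carrying 7 randomized nucleotides for 10 min in 50 µL. Unbound RNA was separated by 8% native PAGE and sequenced. Relative association constants came from read-count changes of each RNA species compared with the control reaction, normalised to the cognate motif.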
row,Binder,binding signal
1,B1,0.0887 KA relative to UGCAUGU
2,B2,0.184 KA relative to UGCAUGU
3,B3,0.0787 KA relative to UGCAUGU
4,B4,0.147 KA relative to UGCAUGU
5,B5,0.0903 KA relative to UGCAUGU
6,B6,0.0698 KA relative to UGCAUGU
7,B7,0.0799 KA relative to UGCAUGU
8,B8,0.0704 KA relative to UGCAUGU
9,B9,0.0845 KA relative to UGCAUGU
10,B10,0.0504 KA relative to UGCAUGU
11,B11,0.143 KA relative to UGCAUGU
12,B12,0.218 KA relative to UGCAUGU
13,B13,0.0685 KA relative to UGCAUGU
14,B14,0.176 KA relative to UGCAUGU
15,B15,0.067 KA relative to UGCAUGU
16,B16,0.161 KA relative to UGCAUGU

row,Binder,binding signal
1,B17,0.109 KA relative to UGCAUGU
2,B18,0.132 KA relative to UGCAUGU
3,B19,0.072 KA relative to UGCAUGU
4,B20,0.0909 KA relative to UGCAUGU
5,B21,0.105 KA relative to UGCAUGU
6,B22,0.0923 KA relative to UGCAUGU
7,B23,0.87 KA relative to UGCAUGU
8,B24,0.142 KA relative to UGCAUGU
9,B25,0.0432 KA relative to UGCAUGU
10,B26,0.0957 KA relative to UGCAUGU
11,B27,0.0878 KA relative to UGCAUGU
12,B28,0.133 KA relative to UGCAUGU
13,B29,0.0589 KA relative to UGCAUGU
14,B30,0.0911 KA relative to UGCAUGU
15,B31,0.0688 KA relative to UGCAUGU
